From PubChem BioAssay AID686978 (National Center for Advancing Translational Sciences (NCATS), 2013)
Screen size: about 420,000 compounds; about 64,000 (15%) were called active. The inconclusive results got no clear call from the source; some entries with a clear call stand among them for comparison. The call rests on the fitted dose curve; in most records, active means well fitted inhibition curve with a large enough effect; inconclusive means small, poorly fitted or top-dose-only effect; inactive means flat fitted curve, though single readings scatter. Potencies beside an inconclusive call are fits to weak or partial responses and may not hold up.

Assay: qHTS for Inhibitors of human tyrosyl-DNA phosphodiesterase 1 (TDP1): qHTS in cells in absence of CPT; further: nearly all actives have a fitted effect of over 55% in size
Settings: DT40 Tdp1-/- hTDP1 cells, no CPT, ATP luminescence, 48 h; activity change, negative = growth inhibition: at 46.2 µM (top of the series) unless noted
Outline: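 Growth kinetics read by CellTiter-Glo luminescence after ≥48 hr at 37 °C. Cells: DT40 Tdp1-/- stably carrying human TDP1, 400 per well, compound exposure in the absence of CPT (DMSO vehicle).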
On the % scale 0 is the no-effect control and ±100 the full control effect; potency means the concentration at half of the fitted maximal effect; tags describe the fitted curve by direction and shape.

Row | Compound | Potency | activity change, negative = growth inhibition
1 | COc1ccc(C)cc1NC(=O)CN1CCN(S(=O)(=O)c2ccc(Cl)cc2)CC1 | inconclusive: 16.4 µM [inhibitor, single point] | 
2 | COc1cccc(NS(=O)(=O)c2ccc3c(c2)CCN3C(C)=O)c1 | active: 7.31 µM | 
3 | CC(=O)/C(N=Nc1cc2c(cc1[N+](=O)[O-])OCCO2)=C(\C)O | active: 25.9 µM | 
4 | O=C(N1CCCCC1)C12CC3CC(C1)CC(C(=O)N1CCCCC1)(C3)C2 | active: 23.1 µM | 
5 | Cc1ccc(N(CC(=O)NC2CCCC2)C(=O)CCC(=O)Nc2nc(C)cs2)cc1 | inconclusive: 20.6 µM [inhibitor, single point] | 
6 | COCCCNS(=O)(=O)c1ccc(N2CCCCS2(=O)=O)cc1 | inconclusive: 29.1 µM [inhibitor, single point] | 
7 | COc1ccc2c(CC(=O)Nc3cccc(S(=O)(=O)N4CCOCC4)c3)coc2c1 | inconclusive: 20.6 µM [inhibitor, partial curve] | 
8 | CCCCc1nc(NCCNC(=O)c2ccco2)c(C#N)c2c1CSC(C)(C)C2 | active: 23.1 µM | 
9 | O=C(CCl)N(Cc1cccc([N+](=O)[O-])c1)c1cccc(Cl)c1 | active: 4.11 µM | 
10 | O=C(NCCc1ccco1)c1ccc(OCc2cn3ccccc3n2)cc1 | inconclusive: 20.6 µM [inhibitor, single point] | 
11 | O=C(Nc1ccc(OCC(F)(F)C(F)F)c(C(F)(F)F)c1)c1ccccc1 | active: 23.1 µM | 
12 | CCC(C(=O)NCCN1CCN(C)CC1)n1c(C)c2cnn(-c3ccccc3)c(=O)c2c1C (stereo not drawn) | inconclusive: 0.0073 µM [inhibitor, full curve, poor fit] | 
13 | COc1ccc(C(=O)NNC(=O)C(=O)Nc2ccc(C)c(Cl)c2)cc1 | inconclusive: 23.1 µM [inhibitor, single point] | 
14 | O=c1c(-c2ccccc2)coc2c(CN3CCCCC3)c(O)ccc12 | inactive | 
15 | CC(=O)c1cccc(-c2ccnc3c2CC(C(=O)Nc2cccc(OC(F)(F)F)c2)O3)c1 (stereo not drawn) | inconclusive: 25.9 µM [inhibitor, single point] | 
16 | O=C(O)c1ccccc1Nc1ccccc1 | inconclusive: 18.4 µM [inhibitor, single point] | inconclusive: -31.8% [inhibitor] [at 92.5 µM]
17 | Cc1cccc(NC(=O)CSc2nnc3scc(-c4ccccc4)n23)c1 | active: 20.6 µM | 
18 | O=C(N/N=C/c1cc2c(cc1Br)OCO2)c1c[nH]c2ccccc12 | active: 20.6 µM | 
19 | Cc1c(Cl)cccc1NC(=S)NCCc1ccc(S(N)(=O)=O)cc1 | inactive | 
20 | COc1ccccc1NC(=O)C(C)OC(=O)CCNS(=O)(=O)c1ccc(C)c(C)c1 (stereo not drawn) | inconclusive: 10.3 µM [inhibitor, partial curve] | 
21 | COC(=O)[C@]1(Cc2ccccc2)N[C@H](CN(C)C(=O)c2ccc(C)cc2)[C@@H]2C(=O)N(C)C(=O)[C@@H]21 | inconclusive: 16.4 µM [inhibitor, single point] | 
22 | Cc1cc(C)nc(N2CCC(CNC(=O)CCc3ccccc3)CC2)n1 | active: 20.6 µM | 
23 | O=C(COC(=O)c1ccc2[nH]c3c(c2c1)CCCC3)NC1CCS(=O)(=O)C1 (stereo not drawn) | inconclusive: 18.4 µM [inhibitor, single point] | 

Row | Compound | Potency | activity change, negative = growth inhibition
24 | COc1ccc(NC(=O)c2cccc(NC(=O)c3ccccc3)c2)cc1 | inconclusive: 18.4 µM [inhibitor, single point] | 
25 | COc1ccccc1NC(=O)c1oc2ccccc2c1NC(=O)C(C)C | active: 16.4 µM | 
26 | CC(C)(C)C1CCC(OCC(O)CN2CCN(c3ccccn3)CC2)CC1 (stereo not drawn) | inconclusive: 25.9 µM [inhibitor, single point] | 
27 | CCc1noc(C)c1C(=O)NNC(=O)c1ccc(N(CC)CC)cc1 | inactive | 
28 | Cc1ccc(NNC(=O)Nc2ccc(Cl)cc2)nn1 | inconclusive: 18.4 µM [inhibitor, partial curve] | 
29 | CCOC(=O)Cc1csc(NC(=O)c2ccc(Br)cc2)n1 | inconclusive: 20.6 µM [inhibitor, single point] | 
30 | O=C(Nc1cccc(Cl)c1)N1CCN2C(=O)c3ccccc3C12c1ccccc1 (stereo not drawn) | active: 18.4 µM | 
31 | COc1cccc(CN2CCC2(C)C(=O)Nc2ccc3c(c2)CCN3C(C)=O)c1F (stereo not drawn) | inconclusive: 20.6 µM [inhibitor, single point] | 
32 | CCOC(=O)C1(Cc2ccc(OC)cc2)CCN(C(=O)C2=CCCC2)CC1 | active: 18.4 µM | 
33 | CCOc1ccccc1NC(=O)CCSc1nc2n[nH]c(C)c2c(=N)n1-c1ccccc1Cl | inconclusive: 23.1 µM [inhibitor, partial curve] | 
34 | Cc1c(Cl)cccc1NC(=O)CSc1ncnc2c1cnn2CCc1ccccc1 | inconclusive: 9.2 µM [inhibitor, partial curve] | 
35 | CC(C)C(=O)Nc1cccc(N2CCN(CCCN3C(=O)C4CCCCN4C3=O)CC2)c1 (stereo not drawn) | inconclusive: 0.461 µM [inhibitor, single point] | 
36 | Cc1c(C)n(Cc2ccccc2)c2ccc(C(=O)NCCCN3CCOCC3)cc12 | inconclusive: 18.4 µM [inhibitor, single point] | 
37 | Cc1ccc(CCNC(=O)C2CCN(S(=O)(=O)N3CCOCC3)CC2)cc1 | inconclusive: 29.1 µM [inhibitor, single point] | 
38 | Cc1onc(-c2ccccc2Cl)c1C(=O)OCC(=O)Nc1cccc(S(=O)(=O)N2CCOCC2)c1 | inconclusive: 18.4 µM [inhibitor, single point] | 
39 | FC(F)(F)c1cc(Cl)c2nc(-c3ccccc3)c(Cc3ccsc3)n2c1 | inactive | 
40 | NC(=O)c1nsc(C(=O)N(Cc2ccco2)C(C(=O)NCC2CCCO2)c2ccc(O)cc2)c1N (stereo not drawn) | inconclusive: 32.6 µM [inhibitor, single point] | 
41 | CCOC(=O)N1CCC(Nc2c(NCCCN(CC)c3cccc(C)c3)c(=O)c2=O)CC1 | inconclusive: 14.6 µM [inhibitor, single point] | 
42 | CCCCOc1ccc(C(=O)Oc2ccc(C)nc2)cc1 | inactive | 
43 | CSC1=NNC(c2ccc(C(C)(C)C)cc2)=NN1 | inactive | 
44 | COc1cccc(CN2CCC3(CC2)c2ccccc2[C@@H](NC(=O)c2ccccc2)[C@@H]3O)c1O | inactive | 
45 | COc1cc(-c2noc(CSc3nc(-c4ccc(F)cc4)cc(=O)[nH]3)n2)cc(OC)c1OC | inactive | 
46 | NC(=O)NC(=O)CSc1nc2cc([N+](=O)[O-])ccc2n1-c1cccc(C(F)(F)F)c1 | inconclusive: 18.4 µM [inhibitor, single point] | 

Row | Compound | Potency | activity change, negative = growth inhibition
47 | COc1ccc(O)c(/C=N/NC(=O)CCC(=O)Nc2ccc(F)cc2)c1 | inconclusive: 16.4 µM [inhibitor, single point] | 
48 | COc1ccc(-c2cc(-c3ccccc3)c(C#N)c(=S)[nH]2)cc1 | inactive | 
49 | COc1cccc(-c2cnc3c(NC(C)=O)cc(-c4cc(OC)c(OC)c(OC)c4)cn23)c1 | inconclusive: 29.1 µM [inhibitor, single point] | 
50 | CC(C)(C)c1ccc(CSc2nc3c(c(=O)[nH]2)CCCC3)cc1 | inconclusive: 29.1 µM [inhibitor, single point] | 
51 | Cc1ccccc1CNC(=O)c1ccccc1NC(=O)c1nsc2ccccc12 | inconclusive: 29.1 µM [inhibitor, single point] | 
52 | CC1CCN(S(=O)(=O)c2ccc3c(c2)c(=O)c(C(=O)NCc2ccc(Cl)cc2)cn3C)CC1 | active: 4.61 µM | 
53 | Oc1oc(-c2ccco2)nc1C=Nc1cccc(Cl)c1 | inconclusive: 29.1 µM [inhibitor, single point] | 
54 | O=c1c(N2CCN(c3cccc(C(F)(F)F)c3)CC2)csc2ccccc12 | active: 25.9 µM | 
55 | CCOC(=O)c1cnn(CC2CCCCC2)c1N | inconclusive: 29.1 µM [inhibitor, single point] | 
56 | CCOCC(=O)Nc1ccc(S(=O)(=O)N2CCC(c3nc4ccccc4[nH]3)CC2)cc1 | inconclusive: 29.1 µM [inhibitor, single point] | 
57 | COc1ccccc1NC(=O)Cn1cnc2c(nc3n2CCCCC3)c1=O | inactive | 
58 | O=C(CSc1ncnc2c1oc1ccccc12)NCc1ccc(F)cc1 | inconclusive: 7.31 µM [inhibitor, full curve, poor fit] | 
59 | Cn1c(=O)c2c(nc(OCc3cccnc3)n2Cc2c(F)cccc2Cl)n(C)c1=O | inconclusive: 20.6 µM [inhibitor, single point] | 
60 | Cc1cc(Br)ccc1NC(=O)CNC(=O)Cc1ccc(S(=O)(=O)N2CCOCC2)s1 | inconclusive: 10.3 µM [inhibitor, partial curve] | 
61 | CC(C)CNC(=S)NC1CC2CCCC(C1)N2C1CCCCC1 (stereo not drawn) |  | inconclusive: -32.9% [inhibitor]
62 | COCCN(Cc1cc2ccc(C)c(C)c2nc1Cl)C(=O)N1CCOCC1 | inconclusive: 29.1 µM [inhibitor, single point] | 
63 | CCOc1ccc(Nc2c(S(=O)(=O)c3ccc(Cl)cc3)cnc3ccc(OC)cc23)cc1 | inconclusive: 20.6 µM [inhibitor, single point] | 
64 | CS(=O)(=O)N(CC(=O)NCc1ccccc1Cl)C1CCCCC1 |  | inconclusive: -30.8% [inhibitor]
65 | C[C@H]1CN(Cc2ccccc2)C(=O)[C@@H]1CC(=O)NCc1ccccc1 | inconclusive: 35.5 µM [inhibitor, single point] | 
66 | O=C1CCC[C@@H]2Cc3nc4ccc(Cl)cc4cc3[C@@H]3CCN1[C@H]23 | inconclusive: 35.5 µM [inhibitor, single point] | 
67 | CCOC(=O)c1ccc(-c2ccc(N3C(c4ccsc4)=Cc4ccc(F)cc4C3c3c[nH]c4ccc(C#N)cc34)cc2)cc1F (stereo not drawn) | inconclusive: 18.4 µM [inhibitor, single point] | 
